PubChem BioAssay AID1477 (National Center for Advancing Translational Sciences (NCATS), 2009)
In all, about 230,000 compounds went through this assay and fewer than 10 were called active. The shares of active, inactive and inconclusive entries below differ from those in the screen. Calls follow the shape of the dose curve; as a rule, active = well fitted curve in the direction sought with a large enough effect; inconclusive = small, poorly fitted or top-dose-only effect, or effect the other way, or another doubt; inactive = no such curve, though single readings can be large or run the other way. No potency is given beside an inconclusive call; the fits are too rough.

Target: Runt-related transcription factor 1 (Homo sapiens) + Core-binding factor subunit beta (Homo sapiens) (UniProt Q01196+Q13951)
Test: qHTS Assay for Compounds Blocking the Interaction Between CBF-beta and RUNX1 for the Treatment of Acute Myeloid Leukemia; as to activity, negative = inhibition: % of control where 0% means no effect
Details: AlphaScreen CBFb-His/RUNX1-biotin binding, biochemical; activity, negative = inhibition: at 59.8 µM (top of the series) unless noted
How it was run: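 CBF-beta (His) and RUNX1 (biotin), 30 nM each; 20 min preassociation; + compound, 15 min; + beads 50 ng each (Ni, streptavidin), 90 min; RT; AlphaScreen read.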

UniProt Q01196, sequence (Q01196 whole entry, looked up): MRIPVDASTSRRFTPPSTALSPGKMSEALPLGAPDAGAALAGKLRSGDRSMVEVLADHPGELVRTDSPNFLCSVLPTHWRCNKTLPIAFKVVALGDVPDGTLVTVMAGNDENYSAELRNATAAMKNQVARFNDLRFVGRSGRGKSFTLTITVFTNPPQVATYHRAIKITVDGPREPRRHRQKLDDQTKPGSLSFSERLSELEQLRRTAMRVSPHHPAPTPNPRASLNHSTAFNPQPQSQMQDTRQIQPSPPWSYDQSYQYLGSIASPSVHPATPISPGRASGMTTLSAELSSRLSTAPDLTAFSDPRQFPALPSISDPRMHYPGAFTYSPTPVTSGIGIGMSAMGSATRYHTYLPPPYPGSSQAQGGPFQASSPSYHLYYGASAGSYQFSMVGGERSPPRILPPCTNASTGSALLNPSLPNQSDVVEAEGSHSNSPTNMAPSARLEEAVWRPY
UniProt Q01196, sequence (Q13951 whole entry, looked up): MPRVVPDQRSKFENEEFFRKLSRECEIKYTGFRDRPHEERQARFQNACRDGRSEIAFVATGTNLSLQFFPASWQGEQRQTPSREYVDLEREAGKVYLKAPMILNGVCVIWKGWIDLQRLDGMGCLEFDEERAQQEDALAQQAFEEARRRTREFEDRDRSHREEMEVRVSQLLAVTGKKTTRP

Structure (SMILES) | activity, negative = inhibition | Potency
COc1ccc(Br)cc1[C@H]1[C@@H]2C=CCC[C@@]2(C)C(=O)N1Cc1ccccc1 | inactive: 16.2% | –
CSc1nnc2c(n1)c(C)nn2-c1cccc(C)c1 | – | inconclusive [inhibitor, single point]
CC(=O)Oc1ccc(C(=C2CCCCC2)c2ccc(OC(C)=O)cc2)cc1 | – | inconclusive [activator, single point]
CNC(=S)N/N=C/c1cn(CCOc2ccc(OC)cc2)c2ccccc12 | – | inconclusive [inhibitor, partial curve]
CC[C@H]1C(c2ccccc2)=NN(c2ccccc2)[C@@H]1CO | – | inconclusive [activator, partial curve]
O=C(NCCCCc1ccccc1)C12CN(Cc3ccccc3)CC1C(c1ccc([N+](=O)[O-])cc1)=NO2 (stereo not drawn) | – | inconclusive [inhibitor, single point]
C/C=C1/C[C@@H](C)[C@@](C)(O)C(=O)OCC2=CCN3CC[C@@H](OC1=O)[C@@H]23 | – | inconclusive [inhibitor, single point]
COc1ccc(C(CNC(=O)c2cc3ccccc3cc2OC)N2CCCC2)cc1 (stereo not drawn) | inactive: 2.11% | –
Oc1cc(O)c2c(c1)OC(c1cc(O)c(O)c(O)c1)C(O)C2 (stereo not drawn) | – | inconclusive [inhibitor, partial curve]
CCOc1ccc(C2=NNC(c3cccs3)=Nc3ccc(OCC)cc32)cc1 | – | inconclusive [inhibitor, partial curve]
O=C(N/N=C/C=C\c1ccccc1[N+](=O)[O-])c1ccccn1 | – | inconclusive [inhibitor, single point]
C=CCNC(=S)/C(=C(\[O-])c1ccc(Cl)cc1)[n+]1ccccc1 | – | inconclusive [inhibitor, single point]
COc1ccccc1[C@@H]1C(c2ccccc2)=NN(c2ccc(Br)cc2)[C@H]1C(=O)N1CCOC1=O | – | inconclusive [activator, partial curve]
Oc1ccccc1/C=N/NC(=S)NC1CC2C=CC1C2 (stereo not drawn) | – | inconclusive [inhibitor, single point]
Cc1ccc(-c2nc(CSCC(=O)N3CCN(C(=O)c4ccco4)CC3)c(C)o2)cc1 | inactive: 5.32% | –
COc1ccc(NS(=O)(=O)c2cc(N/C(=N\S(=O)(=O)c3ccccc3)c3ccc(F)cc3)ccc2Cl)cc1 | – | inconclusive [inhibitor, single point]
COc1cccc(N=C2SC(CC(=O)Nc3ccccc3)C(=O)N2Cc2ccccn2)c1 (stereo not drawn) | inactive: -11.5% | –
CCOCCCNC1=C(Cl)C(=O)c2ccccc2C1=O | – | inconclusive [inhibitor, single point]
CC1=NN(c2ccc(C)c(C)c2)C(=O)/C1=C\C=C\c1ccc([N+](=O)[O-])o1 | – | inconclusive [inhibitor, partial curve]
O=C(CNCc1cccs1)Nc1ccc(N2CCCCCC2)cc1 | – | inconclusive [inhibitor, single point]
COc1ccc(CCN(Cc2ccccn2)C(=S)Nc2ccccc2Cl)cc1OC | inactive: -6.59% | –
CC(C)[C@@H](CC(=O)N[C@@H]1CCNC[C@H]1C(=O)N[C@H](CC(=O)N[C@@H](CCC(=O)O)CC(=O)O)Cc1ccccc1)NC(=O)C[C@H](Cc1c[nH]c2ccccc12)NC(=O)[C@@H]1CNCC[C@H]1N | inactive: 3.81% | –
CCC(C)/C=C/C1=CC2=C(Cl)C(=O)C3(C)OC(=O)C(C(=O)C(C)C(C)O)C3C2=CO1 (stereo not drawn) | – | inconclusive [inhibitor, single point]

Structure (SMILES) | activity, negative = inhibition | Potency
CCC(=O)Nc1ccccc1C(=O)OCc1ccc(C(=O)c2ccccc2)cc1 | – | inconclusive [activator, single point]
Cc1cc(C)nc(N/N=C/c2cc(Br)ccc2O)n1 | – | inconclusive [inhibitor, partial curve]
Cc1nnc(Nc2ccccc2)n(N)c1=O | inactive: -3.75% | –
COc1ccc(NC(=O)CN2CCN(c3nc(-c4cccc(OC)c4)cs3)CC2)cc1 | – | inconclusive [inhibitor, single point]
CC(=O)c1ccccc1NS(=O)(=O)c1ccccc1Cl | – | inconclusive [inhibitor, single point]
COc1cc(-c2cc(=O)c3c(O)c(OC)c(OC)c(O)c3o2)ccc1O | – | inconclusive [inhibitor, single point]
O=C(c1ccc(=O)oc1)N1CCC(C(O)(c2ccccc2)c2ccccc2)CC1 | – | inconclusive [inhibitor, single point]
COc1cccc(Nc2nnc(SCC3CCCCO3)s2)c1 (stereo not drawn) | – | inconclusive [inhibitor, single point]
COc1cccc(C2=Nn3c(nnc3-c3ccccc3OC)SC2)c1 | – | inconclusive [inhibitor, single point]
FC(F)(F)c1ccc(Cl)c(NC(=S)NC2CC2)c1 | inactive: 0.366% | –
S=C(NC1CCCCC1)N1CCc2ccccc2C1 | inactive: 10.7% | –
CC(C)C(=O)N(c1cc2sc(=O)oc2c2ccccc12)S(=O)(=O)c1cccs1 | – | inconclusive [inhibitor, single point]
COc1cnc(-c2ccccn2)nc1Oc1ccc(F)cc1F | – | inconclusive [inhibitor, single point]
CC(=O)c1ccc(NC(=O)c2c(C)nn(-c3ccccc3)c2Cl)cc1 | – | inconclusive [inhibitor, single point]
Nc1nnc(N2CCCCC2)s1 | inactive: 8.52% | –
O=C(c1cccc(C(F)(F)F)c1)N1CCCCCC1 | inactive: 0.684% | –
c1ccc(-c2cc3c(ccc4nonc43)nn2)cc1 | inactive: 2.12% | –
COCCOC(=O)c1c(C)oc2ccc(OCc3cc(C(=O)OC)oc3C)cc12 | – | inconclusive [activator, single point]
O=C(O)Cn1cc(/C=C2/SC(=O)N(CC(=O)N3CCCCCC3)C2=O)c2ccccc21 | – | inconclusive [inhibitor, single point]
CC1=CC(C)(C)Nc2ccc(OC(=O)c3cccnc3)cc21 | inactive: -10.9% | –
NC(=O)c1ccc([N+](=O)[O-])cc1 | inactive: -0.256% [at 21.7 µM] | –
CNS(=O)(=O)c1cccc(C(=O)OC2CCCCC2=O)c1 (stereo not drawn) | inactive: -0.768% | –
COc1cc(C(=O)Nc2ccc3c(c2)N(C(=O)CCN(C)C)c2ccccc2CC3)cc(OC)c1OC | inactive: 0.279% | –

Structure (SMILES) | activity, negative = inhibition | Potency
c1ccc(-c2[nH]ncc2-c2ccnc3ccccc23)nc1 | – | inconclusive [inhibitor, single point]
COc1cccc(/C=C/C(=O)OCC(=O)Nc2ccccc2Sc2ccccc2)c1 | – | inconclusive [activator, single point]
O=C1c2cccc3cccc(c23)C(=O)N1Nc1ccccc1 | inactive: 12.9% | –
O=C1CC(=C2c3ccccc3-c3ccccc32)C(=O)N1CCCCN1CCN(c2ccccc2)CC1 | – | inconclusive [inhibitor, partial curve]
O=C1NN(c2ccccc2)C(=O)/C1=C/c1ccc(Sc2cccc3ccccc23)o1 | – | inconclusive [inhibitor, single point]
O=C(COc1ccc(Br)cc1)N1CCN(c2ccc([N+](=O)[O-])c(N3CCCCC3)c2)CC1 | – | inconclusive [inhibitor, full curve]
CCOC(=O)c1c(N)sc(C)c1-c1ccccc1 | – | inconclusive [inhibitor, single point]
O=C(Cn1cc[n+](CC(=O)c2ccccc2)c1)c1ccccc1 | – | inconclusive [inhibitor, full curve, poor fit]
COc1ccc(N2CCN(CCCNC(=O)c3cc4sccc4n3C)CC2)cc1 | inactive: -22.1% | –
c1ccc(Cn2c(CNc3nc4ccccc4n3CCN3CCOCC3)nc3ccccc32)cc1 | inactive: -8.77% | –
COCC(=O)OCC(=O)Nc1cc(C)c(C)cc1[N+](=O)[O-] | – | inconclusive [activator, single point]
CCCn1c(-c2ccc(F)cc2)nc2c(NCCN(CC)CC)nc(C)nc21 | inactive: 16.3% | –
CC(C)[C@@H]1CC[C@@H](C)C[C@H]1OC(=O)C[n+]1cc(-c2ccc(Cl)cc2)n2c1CCCCC2 | inactive: 3.93% | –
CCOc1ccccc1C(=O)OCC(=O)Nc1ccc(N2CCCCC2)cc1 | – | inconclusive [inhibitor, single point]
S=C(NCCc1ccccc1)N1CCc2ccccc2C1 | – | inconclusive [inhibitor, single point]
NC1(c2ccccc2Cl)CCCCC1=O (stereo not drawn) | – | inconclusive [activator, single point]
Cc1cc2nc(-c3ccc(SCc4ccccn4)nc3)[nH]c2cc1C | – | inconclusive [activator, single point]
COC(=O)C1=C[C@@H](C(=O)OC)C2C3=C(C(=O)[C@@]2(C)NC(=O)c2ccccc2)[C@H](C)[C@@H]2C(=O)N(C)C(=O)[C@@H]2[C@@H]3C1 (stereo partly drawn) | inactive: 3.36% | –
CC(CCc1ccccc1)NC(C)C(O)c1ccc(O)cc1 (stereo not drawn) | – | inconclusive [activator, partial curve]
c1ccc2c(c1)Oc1cccc3cccc-2c13 | – | inconclusive [activator, partial curve]
O=C(N/N=C/c1c(O)n(Cc2ccc(F)cc2)c(=O)[nH]c1=O)c1ccccc1O | – | inconclusive [inhibitor, partial curve]
Cc1ccc(S(=O)(=O)NCC(=O)N(CC(=O)NCC2CCCO2)Cc2ccco2)cc1 (stereo not drawn) | – | inconclusive [inhibitor, single point]
